Assay results taken from PubChem BioAssay AID902 (National Center for Advancing Translational Sciences (NCATS), 2007).
Hit rate of the full screen: of about 130,000 compounds, about 1,900 (1.5%) were called active. The inconclusive results got no clear call from the source; some entries with a clear call stand among them for comparison. Calls follow the shape of the dose curve; as a rule, active = well fitted cell-killing curve with a large enough effect; inconclusive = small, poorly fitted or top-dose-only effect; inactive = no such curve, though single readings can be large or run the other way. Potencies beside an inconclusive call are fits to weak or partial responses and may not hold up.

Assay: qHTS Screen for Compounds that Selectively Target Cancer Cells with p53 Mutations: Cytotoxicity of p53ts Cells at the Nonpermissive Temperature; also: nearly all actives have a fitted effect of over 55% in size
Conditions: H1299-p53A138V viability at 39C, ATP luminescence, 24 h; series mostly up to 46.1 µM
Potency is read from the fitted curve at half-maximal effect; tags tell the direction and shape of the fitted curve.

Compound	Potency
Clc1c(-c2nnc3n2CCCCC3)sc2ccccc12	inactive
Clc1ccc2[nH]c3c(NCC4CCCO4)ncnc3c2c1 (stereo not drawn)	inconclusive: 25.1 µM [cytotoxic, single point]
COc1ccc(-c2cn3c(n2)sc2cc(C(=O)NCCCc4ccccc4)ccc23)cc1	inconclusive: 2.24 µM [cytotoxic, partial curve, poor fit]
O=C(Cn1cc(SCc2ccc(F)cc2)c2ccccc21)N1CCCCC1	inactive
CCc1nnc(SCc2cccc(Cl)c2)c2cc3sccc3n12	inconclusive: 7.94 µM [cytotoxic, full curve, poor fit]
CCOc1cc(S(=O)(=O)NCCc2c(C)[nH]c3ccc(C)cc23)ccc1F	inconclusive: 2.51 µM [cytotoxic, partial curve]
Cc1ccnc(NC(=O)Nc2cccc(F)c2)c1	inconclusive: 3.16 µM [cytotoxic, partial curve, poor fit]
Cc1nc2ccccc2c2oc(C(=O)NCC3COc4ccccc4O3)cc12 (stereo not drawn)	inactive
Cc1nc(-c2ccccc2)sc1CCNC(=O)C(=O)Nc1ccc(F)c(Cl)c1	inconclusive: 25.1 µM [cytotoxic, partial curve, poor fit]
COc1ccc(C(=O)C(CN2CCOCC2)c2ccccc2)cc1F (stereo not drawn)	active: 20 µM
COc1cccc(N2CCN(C(=O)Cn3nc(C)n4c(cc5c(OC)cccc54)c3=O)CC2)c1	inactive
Cc1ccc(OCc2nc(-c3ccccn3)no2)c(Br)c1	inconclusive: 12.6 µM [cytotoxic, partial curve]
CCN(CC)S(=O)(=O)c1ccc2c(c1)c(=O)c(C(=O)NCc1ccccc1Cl)cn2C	active: 6.31 µM
CCOC(=O)c1c(-c2ccc(C)cc2)csc1NC(=O)c1cc(=O)c2cc(C)cc(C)c2o1	inactive
COc1ccc(-n2c(SCc3ccccc3F)nc3c([nH]c4ccccc43)c2=O)cc1OC	inconclusive: 15.8 µM [cytotoxic, partial curve]
Cc1ccc(C)c(/C(O)=C2\C(=O)C(=O)N(CCCn3ccnc3)C2c2cccnc2)c1 (stereo not drawn)	inconclusive: 5.01 µM [cytotoxic, partial curve, poor fit]
O=C(COc1ccccc1F)Nc1c(C(=O)Nc2cccc(F)c2)oc2ccccc12	inconclusive: 1 µM [cytotoxic, partial curve]
COc1ccc(Cn2ccn(Cc3cccc(Cl)c3)c(=O)c2=O)cc1	inconclusive: 31.6 µM [cytotoxic, single point]
Oc1ccc2ccccc2c1/C=C\c1ccc2c(Br)cc(Br)c(O)c2n1	inconclusive: 3.16 µM [cytotoxic, single point]
CC(=O)c1ccc(NC(=O)C2=CC(c3ccc(C)cc3)=NS(=O)(=O)N2C)cc1	inconclusive: 10 µM [cytotoxic, partial curve]
O=c1c(-c2ccc(F)cc2)nc2cnc(N3CCNCC3)nc2n1-c1ccccc1	inconclusive: 31.6 µM [cytotoxic, single point]
CN(C)c1ccc(/C=c2\sc3n(c2=O)CCCN=3)cc1	active: 12.6 µM

Compound	Potency
O=C(CSc1nc2c(oc3ccccc32)c(=O)n1Cc1ccco1)Nc1ccccc1	inconclusive: 15.8 µM [cytotoxic, single point]
COc1ccc(OC)c(CCNC(=O)CCn2c(=O)c3cccn3c3ccc(F)cc32)c1	inconclusive: 31.6 µM [cytotoxic, single point]
CCc1ccc(NC(=O)C2CCCN(S(=O)(=O)c3ccc(F)cc3)C2)cc1 (stereo not drawn)	inconclusive: 31.6 µM [cytotoxic, single point]
Cc1ccc(CN2CCSc3ccc(C(=O)Nc4ccc(C)cc4)cc32)cc1	inconclusive: 7.94 µM [cytotoxic, partial curve, poor fit]
Cc1ccc(Cc2cn3cc(-c4ccccc4)nc3s2)cc1	active: 3.98 µM
Cc1ccc(C)c(NC(=O)CSc2nc3c([nH]c4ccccc43)c(=O)n2-c2ccc(F)cc2)c1	inconclusive: 35.5 µM [cytotoxic, single point]
Cc1ccc2cc(CN(Cc3ccco3)C(=O)NCc3ccccc3)c(=O)[nH]c2c1C	inactive
CCCOc1cccc(C2c3c(-c4ccccc4O)n[nH]c3C(=O)N2Cc2ccco2)c1 (stereo not drawn)	active: 31.6 µM
CCn1c(C(=O)NCc2ccccc2Br)cc2oc3ccccc3c21	inconclusive: 5.01 µM [cytotoxic, partial curve]
COc1ccc(-c2cc(C(=O)OCC(=O)N(C)C)c3ccccc3n2)cc1	inconclusive: 12.6 µM [cytotoxic, partial curve]
c1ccc(-n2nnc3c(N4CCOCC4)ncnc32)cc1	active: 12.6 µM
Cc1ccc(Cl)cc1N1CCN(C(=O)c2ccc(CS(=O)c3ccccc3)o2)CC1 (stereo not drawn)	inconclusive: 0.1 µM [cytotoxic, full curve]
Cc1cc(C)cc(Nc2cc(C(=O)NCCCN(C)C3CCCCC3)c3ccccc3n2)c1	active: 7.94 µM
CCc1ccc2oc(-c3ccc(NC(=O)c4cc5ccccc5o4)cc3)nc2c1	inconclusive: 3.98 µM [cytotoxic, single point]
CCCNC(=O)CCCN1C(=O)CCn2nc(-c3cccn3C)cc21	inactive
Cn1c(SCc2cc(=O)c3cc(Cl)ccc3[nH]2)nnc1-c1ccccc1	inactive
COC(=O)c1cccc(NC(=O)c2cccc(OC)c2)c1	inconclusive: 12.6 µM [cytotoxic, single point]
COc1ccc(C(CNC(=O)c2oc3cc(C)c(Cl)cc3c2C)N2CCCCC2)cc1 (stereo not drawn)	inactive
CC1CCN(S(=O)(=O)c2ccc3nc(NCc4ccccc4)ccc3c2)CC1	inconclusive: 2.51 µM [cytotoxic, partial curve, poor fit]
Cc1cccc(CCn2c(=O)c3ccccc3n(CC(=O)Nc3ccccc3F)c2=O)c1	inconclusive: 12.6 µM [cytotoxic, single point]
Cc1ccc(C)c(N2CCN(CCCNC(=O)c3cnn(-c4ccccc4)c3C3CCN(C(=O)OC(C)(C)C)CC3)CC2)c1	inconclusive: 25.1 µM [cytotoxic, single point]
